Source: the RNAGym collection of RNA variant scans (doi:10.1093/nar/gkz1192)
The source gives no read counts; variants with many changes may rest on few reads.

B1: CPEB3 Ribozyme (parent)
chain: UAACAGGGGGCCACAGCAGAAGCGUUCACGUCGCAGCCCCUGUCAGAUUCUGGUGAAUCUGCGAAUUCUGCUGUAUAUCUC

Variants of: B1
Assay: self-cleavage, relative activity (ratio to wild type); higher = more cleavage; in vitro, sequencing
Summary of the method: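 Relative activity compares each variant's cleaved/total read fraction with that of the unmutated ribozyme. To get these fractions, barcoded CPEB3 ribozyme libraries from rounds of error-prone PCR were transcribed with T7 RNA polymerase for 5 hours at 37°C and then given 15 min of DNase I treatment before EDTA was added. The RNAs were reverse transcribed with template switching and sequenced on Illumina, and DNA sequencing linked barcodes to variants. A minimum of 5 reads applied, and three batches were averaged.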

Variant | self-cleavage
CUACAGGGGGCCACAGCAGAAGCGUUCAUGUCGCAGCCCCUGUCAGUUUCUGGUGAAUCUGCGAAUUCUGCUGUAUAUCUC [U1C A2U C29U A47U] | 0.43
CGACAGGGGGCCACAGCAGAAGCGUUCACGUCGGAGCCCCUGUUAGAUUCUGGUGAAUCUGCGAAAUCUGCUGUAUAUCUC [U1C A2G C34G C44U U66A] | 0.17
CAUCAGGGGGCCACAGCAGAAGCGUUCACGUCGCAGACCCUGUCAGAUUCUGGGGAAUCUGCGAAUUCUGCUGUAUAUCUC [U1C A3U C37A U54G] | 0.08
CUACAGGGGGCCACAGCAGAAGCGUCCACGUCGCAGCCCCUGUCAGAUUCUGGUGAAUCUGCGAGUCCUACUGUAUAUCUC [U1C A2U U26C A65G U67C G70A] | 0.06
CGACAGGGGGCCACAGCAGAAGCGAUCACGUCGCAGCCCCUGUCAGUUUCUGGUGAAUCUGCGAAUCCUGCUGUAUAUCUC [U1C A2G U25A A47U U67C] | 0.07
CUACAGGGGGCCACAGCAGAAGCGUUCACGUCGCAGCCCCUGUCAGAUUCUGGUGAAUCUGCGAAUUCUACUGUAUAUCUC [U1C A2U G70A] | 0.23
CGACAGGGGGCCACAGCAGAAGCGUUCCCGUCGCAGCCCCUGUCAGAUUCUGGUGAAUCUGCGAAUUCUGCUGUAUAUCUC [U1C A2G A28C] | 0.46
CAGCAGGGGGCCACAGCAGAAGCGUACACGUCGCAGCCCCUGUCAGAUUCUGGUGAAUCUGCGAAUUCUGCUGUAUAUCUC [U1C A3G U26A] | 0.6
CAACGGGGGGUCACAGCAGAAGCGUUCACGUCGCAGCCCCUGUCAGAUUCUGGUGAAUCUGCGAAUUCUGCAGUACAUCUC [U1C A5G C11U U72A U76C] | 0.28
CGACAGGGGGCCACCGCAGAAGCGUUCACGUCGCAGCCCCUGUCAGAUUCUGGUGAAUCUGCGAAUUCUGCUGUAUAUCUC [U1C A2G A15C] | 0.83
CAACAGGGGGCCCCAGCAGAAGCGUUCACGUCGCUGCCCCUGUCAGAUUCUGGUGAAUCGGCGAAUACUGCCGUAUACCUC [U1C A13C A35U U60G U67A U72C U78C] | 0.07
CAGCAGGGGGCCACAGCAGGAGCGUCCACGUCGCAGCCCCUGUCAGACUCUGGUGAAUCUGCGAACUCUGCUGUAUGUCUC [U1C A3G A20G U26C U48C U66C A77G] | 0.36
CAGCAGGGGGCCACAGCAGAAGCGCUCACGUCGCAGCCCCUGUCAGAUUCUGGCGAAUCUGCGAAUUCUGCUGUAUAUCUC [U1C A3G U25C U54C] | 0.11
CAACGGGGGGCCUCAGCAGAAGCGUUCACGUCGCAGCCCCUGUCAGAUUCUGGUGAAUCUGCUGAUUCUGCUGUAUAUCUC [U1C A5G A13U G63U A64G] | 0.73
CAACCGGGGGCCACAGCAGAAGCGUUCACGCCGCAGCCCCUGUCAGAUUCUGGUGAAUCUGCGAAUUCUGCCGUAUAUCUC [U1C A5C U31C U72C] | 0.97
CAACCGGGGGCCACAGCAGAAGCGUUCACAUCGCAGCCCCAGUCAGAAUCUGGUGAAUCUGCGAAUUCUGCUGUAUAUAUC [U1C A5C G30A U41A U48A C79A] | 0.05
CAGCAAGGGGCCACAGCAGAAGCGCUCACGUCGCAGCCCCUGUCAGAUUCUGGUGAAUCUGCGAAUUCUGCUGUAUAUCUC [U1C A3G G6A U25C] | 0.51

Variant | self-cleavage
AAACAGGGGGCCACAGCAGAAGCGUUCACGUCGCAGCCCCUGUCAGAUUCUGGUGAACCUGCGAGUUCUACUGUAUAUCUC [U1A U58C A65G G70A] | 0.31
CGACAGAGGGUCACAGCAGAAGCGUUCACGUCGCAGCCCCUGUCAGGUUCUGGUGGAUCUGCGAAUUCUGCUGUAUAUCCC [U1C A2G G7A C11U A47G A56G U80C] | 0.04
CAACUGGGGGCCACAGCAGAAGCGUUCAUGCCGCAGCCCCUGUCAGAUUCCGGUGAAUCUGCCUAUUCUGCUGUAUAUCUC [U1C A5U C29U U31C U51C G63C A64U] | 0.09
CGAUAGGGGGCCACAGCAGAAGCGUUCUCGUCGCAGCCCCUGUCAGAUUCUGGUGAUUCUGCGAAUUCUGCUGUAUAUCUC [U1C A2G C4U A28U A57U] | 0.46
CAACGGCGGGCCACAGCAGAAGCGUUCACGUCGCAGCCCCUGUCAGAUACUGGUGAAUCUGCGAAUUCUGCUGUAUAUCUC [U1C A5G G7C U49A] | 0.28
CACCAGGGGGCCAUAGCAGAAGCGUCCACGUCGCAGCCCCUGUCAGAUUCUGGUGAAUCUGCGAAUUCUGCUGUAUAUCUC [U1C A3C C14U U26C] | 0.51
CAACGGGGGGCCACAGCAGAAGCGUUCACGUCGCAGCCCCUGUCAGAUUCUGGAGAAUCUGCGAAUUCUGCUGUAUAUCAC [U1C A5G U54A U80A] | 0.66
CCACUGGGGGCCACAGCAGAAGCGUUCACGCCGCAGCCCCUGCCAGAUUCUGGUGAAUCUGCGAAUUCUGCUGUAUAUCUC [U1C A2C A5U U31C U43C] | 0.37
CAGCAGGGGGCCACAGCAGAAGCGUUCAAGUCGCGGCCCCUGUCAGAUUCUUGUGUAUCUGCGAACUCUGCUGUAUAUCUC [U1C A3G C29A A35G G52U A56U U66C] | 0.24
CAGCAGGGGGCCACAGCAGGAGCGUUCACGUAGCAGCCCCUGCCAGAUUCAGGUGAAUCUGCGAAUUCUGCUGUAUAUCUC [U1C A3G A20G C32A U43C U51A] | 0.08
CGACAGGGGGCCACAGCAGAAGCGUUCACGUCGCAGCCUCUGUCAGAUUCUGGUGAAUCUGCGAAUUCUGCUGUAUGUCUC [U1C A2G C39U A77G] | 0.41
CAACGGGGGGCCACGGCAGAAGCGUUCACGUCGCAGCCCCUGUCAGAUUCUGGUGGAUCUGCGAAUUCUGCUGUAUAUCUC [U1C A5G A15G A56G] | 0.49
CAGCAGGGGGCCACAGCAGAAGCGUUCACGUCGCAGCCCCUGUCAGAUUCUGGCGAAUCUGCGAAUUCUGCUGUAUAUCUC [U1C A3G U54C] | 1.09
AAACAGGGGGCCACAGCAGAAGCGUUCACGUCGCAGCCCCUGUCAGAUUCUGGUGAAUCAGCGGAUUCUGCUGUAUAUCUC [U1A U60A A64G] | 0.13
CAGCAGGGGGCCACAGCAGAAGCGUUCACGCCGCAGCCCCUGUCAGAUUCUGGUGAAUCUGCGAAUUCUGCUGUAUAUCUC [U1C A3G U31C] | 0.91
CAGCAGGGGGCCACAGCGGAAGCGUUCACGUCGCGGCCCCUGUCAGAUUCUGGUGAAUCUGCGAAUUCUGCUGUAUAUCUC [U1C A3G A18G A35G] | 1.04
CAACUGGGGGCCACAGCAGAAGCGUUCUCGUCGCUGCCCCUGUCAGAUUCUGGUGAAUCUGCGAAUUCUGCUGUAUAUCUC [U1C A5U A28U A35U] | 0.53
